# Assay results as given in the supplement of paper PMC8728848.
# Some of the results follow.
# B1: Epa22 (Candida glabrata) (protein)
# chain: MGSSHHHHHHSSGLVPRGSHMKRALSSQNPFGYPIGCSPQSTNVIPGLTMELYSYPIVSGTPPNCYDASYVDPEYPRTGYLKRKMIGKSTGVTGSLNYKFSVEKACMVKYGNLPAGYNYNEPLTVSNFTMLLYGYFKPQTSGIHTFFVNADDLLYINFGAGNAFDCCKREDSKFKLGEYVAYDIWHVDSSKNKVSLNLEKDVYYPIRMFFNNIGKDSSLDLSFSVNGAVEHITDFSGYLYSVPDQPDACPAPIGYDTTCK
# Experiments:
# Assay in all cases: glycan array binding signal (z-score within array); higher = stronger binding
# Conditions in all cases: glycan notation: IUPAC condensed, linker removed
# [1] = target: Neu5Ac(a2-3)Gal(b1-4)GlcNAc(b1-6)GalNAc
# How it was run: (§1)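 The binding signal is a Z-score computed within each array. Data were drawn from 3228 arrays in the Consortium for Functional Glycomics database, restricted to those with a known protein sequence. Scores were averaged over arrays of the same protein sequence at different concentrations or buffers, and over linkers, and negative values can be taken as non-binding.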
# [2] = target: Neu5Ac(a2-3)Gal(b1-4)GlcNAc(b1-6)[Gal(b1-3)]GalNAc
# How it was run: as §1
# [3] = target: Neu5Ac(a2-3)Gal(b1-4)GlcNAc(b1-6)[Neu5Ac(a2-3)Gal(b1-3)]GalNAc
# How it was run: as §1
# [4] = target: Neu5Ac(a2-3)Gal(b1-4)GlcNAc6S
# How it was run: as §1
# [5] = target: Neu5Ac(a2-3)Gal(b1-4)[Fuc(a1-3)]GlcNAc
# How it was run: as §1
# [6] = target: Neu5Ac(a2-3)Gal(b1-4)[Fuc(a1-3)]GlcNAc(b1-2)Man
# How it was run: as §1
# [7] = target: Neu5Ac(a2-3)Gal(b1-4)[Fuc(a1-3)]GlcNAc(b1-3)Gal
# How it was run: as §1
# [8] = target: Neu5Ac(a2-3)Gal(b1-4)[Fuc(a1-3)]GlcNAc(b1-3)Gal(b1-4)GlcNAc
# How it was run: as §1
# [9] = target: Neu5Ac(a2-3)Gal(b1-4)[Fuc(a1-3)]GlcNAc(b1-3)Gal(b1-4)[Fuc(a1-3)]GlcNAc(b1-3)Gal(b1-4)[Fuc(a1-3)]GlcNAc
# How it was run: as §1
# [10] = target: Neu5Ac(a2-3)Gal(b1-4)[Fuc(a1-3)]GlcNAc(b1-3)GalNAc
# How it was run: as §1
# [11] = target: Neu5Ac(a2-3)Gal(b1-4)[Fuc(a1-3)]GlcNAc(b1-6)[Gal(b1-3)]GalNAc
# How it was run: as §1
# [12] = target: Neu5Ac(a2-3)Gal(b1-4)[Fuc(a1-3)]GlcNAc(b1-6)[Neu5Ac(a2-3)Gal(b1-3)]GalNAc
# How it was run: as §1
# [13] = target: Neu5Ac(a2-3)Gal(b1-4)[Fuc(a1-3)]GlcNAc6S
# How it was run: as §1
# [14] = target: Neu5Ac(a2-3)Gal6S(b1-4)GlcNAc
# How it was run: as §1
# [15] = target: Neu5Ac(a2-3)Gal6S(b1-4)[Fuc(a1-3)]GlcNAc
# How it was run: as §1
# [16] = target: Neu5Ac(a2-3)GalNAc
# How it was run: as §1
# [17] = target: Neu5Ac(a2-3)GalNAc(b1-4)GlcNAc
# How it was run: as §1
# [18] = target: Neu5Ac(a2-3)[GalNAc(b1-4)]Gal(b1-4)Glc
# How it was run: as §1
# [19] = target: Neu5Ac(a2-3)[GalNAc(b1-4)]Gal(b1-4)GlcNAc
# How it was run: as §1
# [20] = target: Neu5Ac(a2-3)[GalNAc(b1-4)]Gal(b1-4)GlcNAc(b1-3)GalNAc
# How it was run: as §1
# [21] = target: Neu5Ac(a2-3)[Neu5Ac(a2-6)]GalNAc
# How it was run: as §1
# [22] = target: Neu5Ac(a2-6)Gal
# How it was run: as §1
# [23] = target: Neu5Ac(a2-6)Gal(b1-3)GlcNAc(b1-3)[Gal(b1-4)GlcNAc(b1-6)]Gal(b1-4)Glc
# How it was run: as §1
# [24] = target: Neu5Ac(a2-6)Gal(b1-4)Glc
# How it was run: as §1
# [25] = target: Neu5Ac(a2-6)Gal(b1-4)GlcNAc
# How it was run: as §1
# [26] = target: Neu5Ac(a2-6)Gal(b1-4)GlcNAc(b1-2)Man
# How it was run: as §1
# [27] = target: Neu5Ac(a2-6)Gal(b1-4)GlcNAc(b1-2)Man(a1-3)Man(b1-4)GlcNAc(b1-4)GlcNAc
# How it was run: as §1
# [28] = target: Neu5Ac(a2-6)Gal(b1-4)GlcNAc(b1-2)Man(a1-3)[Gal(b1-4)GlcNAc(b1-2)Man(a1-6)]Man(b1-4)GlcNAc(b1-4)GlcNAc
# How it was run: as §1
# [29] = target: Neu5Ac(a2-6)Gal(b1-4)GlcNAc(b1-2)Man(a1-3)[GlcNAc(b1-4)][Neu5Ac(a2-6)Gal(b1-4)GlcNAc(b1-2)Man(a1-6)]Man(b1-4)GlcNAc(b1-4)GlcNAc
# How it was run: as §1
# [30] = target: Neu5Ac(a2-6)Gal(b1-4)GlcNAc(b1-2)Man(a1-3)[Man(a1-6)]Man(b1-4)GlcNAc(b1-4)GlcNAc
# How it was run: as §1
binder,measurement,setting,value
B1,glycan array binding signal (z-score),[1],-0.373
same,glycan array binding signal (z-score),[2],-0.321
same,glycan array binding signal (z-score),[3],-0.42
same,glycan array binding signal (z-score),[4],-0.166
same,glycan array binding signal (z-score),[5],-0.41
same,glycan array binding signal (z-score),[6],-0.347
same,glycan array binding signal (z-score),[7],-0.385
same,glycan array binding signal (z-score),[8],-0.416
same,glycan array binding signal (z-score),[9],-0.375
same,glycan array binding signal (z-score),[10],-0.25
same,glycan array binding signal (z-score),[11],-0.311
same,glycan array binding signal (z-score),[12],-0.187
same,glycan array binding signal (z-score),[13],-0.326
same,glycan array binding signal (z-score),[14],-0.393
same,glycan array binding signal (z-score),[15],-0.37
same,glycan array binding signal (z-score),[16],-0.29
same,glycan array binding signal (z-score),[17],-0.191
same,glycan array binding signal (z-score),[18],-0.403
same,glycan array binding signal (z-score),[19],-0.358
same,glycan array binding signal (z-score),[20],-0.37
same,glycan array binding signal (z-score),[21],-0.307
same,glycan array binding signal (z-score),[22],-0.247
same,glycan array binding signal (z-score),[23],-0.225
same,glycan array binding signal (z-score),[24],0.063
same,glycan array binding signal (z-score),[25],-0.155
same,glycan array binding signal (z-score),[26],-0.271
same,glycan array binding signal (z-score),[27],-0.251
same,glycan array binding signal (z-score),[28],-0.412
same,glycan array binding signal (z-score),[29],-0.397
same,glycan array binding signal (z-score),[30],-0.346
